The structures appear in SMILES notation. Among all 150,000 compounds or so, about 540 (0.36%) showed an effect of 50% or more. This is one part of the list.

In this test the test system is Plasmodium falciparum. The experiment in a line: Primary screen in NF54 nanoGlo assay, in single point, at 2uM, 72h; a lower Z score goes with more inhibition. The conditions noted are these: timepoint 72 hour. The class given is functional, Erythrocyte.
For `COCCN1C(=O)C[C@H](CNC(=O)c2coc(C)c2)[C@H]1c1cnn(C)c1`, the “% Inhibition” value was -3% and the Z score turned out to be 0.36.

In the case of `Cc1nc(-c2noc(-c3ccccc3)n2)cn1CC(=O)Nc1ccc(F)c(Cl)c1`, the “% Inhibition” value was found to be 3% and the Z score is on record as -0.5.

For `C[C@H](Oc1ccccc1)C(=O)N1CCCN(S(=O)(=O)c2cnn(C)c2)CC1`, the “% Inhibition” value was found to be 9% and the Z score was -1.33.

With `CC(=O)N(C)c1cccc(NC(=O)N[C@@H](C)Cc2c(C)noc2C)c1`, the “% Inhibition” value amounted to 6% and the Z score is on record as -0.9.

For `CN(Cc1ccc(F)cc1)c1ncnc(Oc2ccccc2F)c1N`, the “% Inhibition” value stood at 6% and the Z score is on record as -0.96.

Regarding `O=C(CCC(F)(F)F)NCCN1c2ccccc2N(C2CC2)S1(=O)=O`, the “% Inhibition” value is 17% and the Z score is -2.22.

For the compound `Cc1ccccc1S(=O)(=O)Cc1ccc(C(=O)N2CCN(C)CC2)o1`, the “% Inhibition” value is reported as -8% and the Z score was determined as 1.07.

Consider `CCCn1nccc1-c1cc(NC2CC2)nc(N)n1`, for which the “% Inhibition” value was -19% and the Z score came to 2.01.

Turning to `OCc1ccc(NCc2cccc(OC3CC3)c2F)nc1`, the “% Inhibition” value is on record as -4% and the Z score turned out to be 0.73.

For the compound `CC(C)CNC(=O)c1ccc2[nH]c(=O)[nH]c2n1`, the “% Inhibition” value was found to be 6% and the Z score is -1.17.

Take `CC[C@H]1[C@H](NC(=O)c2oc(COc3ccccc3)cc2C)[C@H]2CCO[C@H]21`: the “% Inhibition” value is -7% and the Z score amounted to 0.72.

Turning to `COC(=O)N1CC(NC(=O)[C@H](OC2CCCC2)c2ccccc2)C1`, the “% Inhibition” value was determined as 8% and the Z score was -1.36.

As for `O=C(O)C1CCCC(C(=O)NCCc2ccc3c(c2)OCCO3)C1` (stereo not drawn), the “% Inhibition” value is given as -8% and the Z score was 1.21.

Consider `O=C(c1ccc(Cl)c(NCc2nc(=O)[nH][nH]2)c1)N1CCCCC1`, for which the “% Inhibition” value is -4% and the Z score was determined as 0.43.

Turning to `O=c1n(Cc2ccccc2F)nc(C2CCNCC2)n1Cc1ccccc1`, the “% Inhibition” value was -5% and the Z score was 0.62.

As to `CC1CCN(S(=O)(=O)c2cccn(CC(=O)N(C)c3ccccc3)c2=O)CC1`, the “% Inhibition” value is reported as -5% and the Z score is 0.71.

On to `COc1ccc(OC)c(-c2csc(NC(=O)CCOc3ccccc3OC)n2)c1`, for which the “% Inhibition” value worked out at 4% and the Z score is -0.5.

Consider `Cc1ccccc1CC(=O)Nc1nnc([C@H]2CC(=O)N(c3ccc(Cl)cc3)C2)o1`, for which the “% Inhibition” value is on record as -5% and the Z score is reported as 0.99.

With `CCCN(CCC)c1ncc(C(=O)O)cc1NS(=O)(=O)c1ccccc1`, the “% Inhibition” value is on record as -10% and the Z score is reported as 1.79.

Regarding `O=C(COc1ccccc1)NC1CCC(n2cccn2)CC1` (stereo not drawn), the “% Inhibition” value is -5% and the Z score came out at 0.96.

In the case of `O=C1CN(Cc2ccccc2)C(=O)[C@@H](CO)N1`, the “% Inhibition” value is on record as -6% and the Z score is given as 1.28.

As for `c1ccc2sc(CN3CCOCC3)nc2c1`, the “% Inhibition” value is listed as -6% and the Z score amounted to 0.65.

`Cc1cc(NC(=O)C(C)N2CCCC(Cn3cncn3)C2)on1` (stereo not drawn): the “% Inhibition” value stood at 8% and the Z score was -1.37.

For the compound `CC(NC1CC(C)N(c2ccccc2)C1)C1CCOCC1` (stereo not drawn), the “% Inhibition” value is given as 3% and the Z score is -0.63.

With `Cc1sc2ccccc2c1CN1C[C@H](N)[C@@H](O)C1`, the “% Inhibition” value is -13% and the Z score was found to be 1.59.

`O=C(c1ccc(S(=O)(=O)N2CCCC2)cc1)N1CC[C@]2(CCOC2)C1`: the “% Inhibition” value is given as 1% and the Z score was -0.19.

As for `CCn1nc(C)cc1C(=O)Nc1ccc(C(N)=O)nn1`, the “% Inhibition” value is recorded as -7% and the Z score came out at 1.3.

Turning to `Cc1nn(C)c(C)c1CCC(=O)N1CCc2[nH]cnc2[C@H]1c1cccnc1`, the “% Inhibition” value is listed as 0% and the Z score is on record as 0.02.

Take `O=S1(=O)CCN(S(=O)(=O)c2cccc3nsnc23)CC[C@H]1c1cccs1`: the “% Inhibition” value stood at 5% and the Z score was -0.89.

Turning to `CC1CN(C(=O)CCS(=O)(=O)c2ccc(Cl)cc2)CC(C)O1` (stereo not drawn), the “% Inhibition” value was -6% and the Z score was found to be 0.89.

Take `Cc1noc(Cl)c1CC(=O)N1CCC(c2ccccn2)CC1`: the “% Inhibition” value worked out at 3% and the Z score is -0.56.

On to `Cc1ccc(S(=O)(=O)N2CCCCC2C)cc1C(=O)N1CCN(CC(C)O)C(C)C1` (stereo not drawn), for which the “% Inhibition” value is listed as 8% and the Z score is given as -0.75.

`O=C(CCc1cccnc1)N1CCC2(CC1)CC(=O)N(C[C@H]1CCCO1)C2`: the “% Inhibition” value is reported as -12% and the Z score was 2.45.

Take `Cc1c(CNC2CCCCCCC2)c(C(=O)O)c(C)n1Cc1ccc(Cl)cc1`: the “% Inhibition” value is recorded as -5% and the Z score is 0.93.

As for `CC(=O)Nc1nc2ccc(S(=O)(=O)N3CCOCC3)cc2s1`, the “% Inhibition” value is given as -10% and the Z score is listed as 1.21.

With `CN(CCCC(=O)O)S(=O)(=O)N(C)C1CCCCC1`, the “% Inhibition” value is -10% and the Z score worked out at 1.49.

Turning to `Cc1nc(CC(C)C)c(NC(=O)N2CCOC(C(F)(F)F)C2C)s1` (stereo not drawn), the “% Inhibition” value is reported as -20% and the Z score was 2.58.

`CC(C)CN1C[C@@H](CN2CCN(C)CC2)C[C@@H](C(=O)NCCc2c[nH]c3ccccc23)C1`: the “% Inhibition” value is -5% and the Z score was 0.55.

On to `C[C@H](O)CN(C(=O)Nc1cc(Cl)ccc1Cl)C1CCS(=O)(=O)CC1`, for which the “% Inhibition” value was found to be 4% and the Z score is -0.54.

With `COC[C@@](C)(C#N)NC(=O)c1cccc(F)c1Cl`, the “% Inhibition” value was found to be 2% and the Z score is recorded as -0.23.

Take `O=C(NCC1CCCO1)C1COC2(CCN(C(=O)c3ccccc3F)CC2)N1C(=O)c1ccccc1` (stereo not drawn): the “% Inhibition” value is recorded as -7% and the Z score is given as 0.94.

Take `COc1ccc2cc(C(=O)NCc3nnc(N)s3)n(C)c2c1`: the “% Inhibition” value is listed as -8% and the Z score turned out to be 1.04.

With `Cc1cc(C)n(-c2ccc(CC(=O)Nc3ccccc3)cc2)n1`, the “% Inhibition” value is -5% and the Z score amounted to 0.87.

In the case of `COc1nc(C)nc(N[C@@H](C)CO)c1C`, the “% Inhibition” value is 0% and the Z score is reported as -0.05.

For `COCCc1nc(CC(N)=O)nn1C1Cc2ccccc2C1`, the “% Inhibition” value was -11% and the Z score was found to be 1.09.

Turning to `CN(CCc1ccccc1)[C@H]1CCCN(C2CCN(Cc3ccco3)CC2)C1`, the “% Inhibition” value is -2% and the Z score worked out at 0.33.

On to `CN(Cc1cscn1)C(=O)C1CC1c1ccc(Cl)cc1Cl` (stereo not drawn), for which the “% Inhibition” value was -4% and the Z score amounted to 0.42.

For `CN(CCc1cccc2ccccc12)CC(=O)NCc1cccnc1`, the “% Inhibition” value stood at 6% and the Z score was -0.94.

Turning to `COc1cccc(NC(=O)Nc2ccc(N3CCN(C(=O)c4ccccc4Cl)CC3)nc2)c1`, the “% Inhibition” value came to 6% and the Z score is given as -0.54.

As for `CCS(=O)(=O)CCNC(=O)Cc1c[nH]c2cc(Cl)ccc12`, the “% Inhibition” value is -3% and the Z score was 0.33.

As to `O=C(N[C@H]1CCCN(C2CCCCCC2)C1)c1cnccn1`, the “% Inhibition” value is -11% and the Z score stood at 1.63.

Take `CCCc1ncc(C(=O)N2CC(=O)Nc3c(C)ccnc32)s1`: the “% Inhibition” value is on record as -4% and the Z score is 0.77.

Regarding `CC1CC(NC(=O)c2cncn2-c2ccc(-c3cc(C(F)(F)F)cc(C(F)(F)F)c3)cc2)CC(C)(C)C1` (stereo not drawn), the “% Inhibition” value is 7% and the Z score was -0.91.

For `COc1cnc(C(=O)N2CCC[C@H](c3nc4ccccc4s3)C2)cc1O`, the “% Inhibition” value is given as -4% and the Z score stood at 0.53.
